From paper PMC4921775, “Transient Fcho1/2⋅Eps15/R⋅AP-2 Nanoclusters Prime the AP-2 Clathrin Adaptor for Cargo Binding” (Developmental Cell, 2016)
Residue numbers refer to the chain shown, from its start. No constants are given. Whether binding was seen depends on the method and setting. In cells and extracts the contact can be indirect. Some binding calls cover weakened binding; strength is not graded here. For some assays here: Sequences can lack the tags named with a protein.

Tests used:
GST-FCHO1 μHD (human) [1] = target: T1, GST-FCHO1 μHD (human) (UniProt O14526); assay: pull-down; GST-μHD fusion proteins on glutathione-Sepharose, cytosolic partner proteins detected by blot; Figures S1E, S3A, S3B, S3E (legends not shown, source of the extract not told); only the target purified
T1 sequence: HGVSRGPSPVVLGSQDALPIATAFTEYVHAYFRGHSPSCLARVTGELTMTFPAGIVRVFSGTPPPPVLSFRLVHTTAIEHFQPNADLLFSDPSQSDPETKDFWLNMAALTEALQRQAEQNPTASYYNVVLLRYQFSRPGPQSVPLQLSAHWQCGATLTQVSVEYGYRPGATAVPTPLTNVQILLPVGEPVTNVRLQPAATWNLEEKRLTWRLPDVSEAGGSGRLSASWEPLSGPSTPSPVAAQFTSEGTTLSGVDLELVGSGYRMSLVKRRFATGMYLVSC

[2] = target: T2, GST-FCHO1 μHD T633Y (human) (UniProt O14526); assay: as above
T2 sequence: T1 sequence with T25Y

[3] = target: T3, GST-FCHO1 μHD Y635S (human) (UniProt O14526); assay: as above
T3 sequence: T1 sequence with Y27S

[4] = target: T4, GST-FCHO1 μHD K877E + R879A (human, UniProt O14526 609-889, K877E | R879A); assay: pull-down; HeLa cell lysate with 250 μg (Figure 3F: the indicated amount) of GST or GST-μHD fusion proteins immobilised on glutathione-Sepharose; supernatant and pellet stained or immunoblotted; Figures 1G, 3E, 3F; only the target purified
T4 construct: also called K877E + R879A mutant; source: GST-fusion protein immobilised on glutathione-Sepharose; not shown: GST, N-terminal, kept
T4 sequence (looked up): T1 sequence with K269E, R271A

GST-FCHO1 μHD (human) [5] = target: T1, GST-FCHO1 μHD (human); assay: as above
[6] = target: T5, GST-FCHO1 μHD N735A + R740A (human) (UniProt O14526); assay: as above
T5 sequence: T1 sequence with N127A, R132A

EPS15 (595–896) (human) = target: T6, EPS15 (595–896) (human) (UniProt P42566); assay: pull-down; EPS15 (595–896) immobilised on excess GST-AP-2 α appendage, FCHO1 μHD added; Figures S1G, S1H (legends not shown)
T6 sequence: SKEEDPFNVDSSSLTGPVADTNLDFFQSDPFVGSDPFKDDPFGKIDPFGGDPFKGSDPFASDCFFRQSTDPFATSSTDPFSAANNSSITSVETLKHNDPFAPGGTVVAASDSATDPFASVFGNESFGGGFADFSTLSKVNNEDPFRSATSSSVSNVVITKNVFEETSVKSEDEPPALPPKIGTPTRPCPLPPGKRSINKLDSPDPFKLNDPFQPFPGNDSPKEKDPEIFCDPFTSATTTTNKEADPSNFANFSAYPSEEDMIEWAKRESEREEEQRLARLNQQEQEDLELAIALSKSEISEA

[7] = target: T7, GST-EPS15 (615–636) (human); assay: pull-down; rat brain cytosol with 250 μg of GST and either 50 or 250 μg of GST-EPS15 fusion proteins; immunoblot with antibodies against Fcho2; Figures 1A, 1B; only the target purified
T7 sequence: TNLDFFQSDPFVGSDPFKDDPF

B1: HRB (protein, UniProt P52594 1-562)
chain: MAASAKRKQEEKHLKMLRDMTGLPHNRKCFDCDQRGPTYVNMTVGSFVCTSCSGSLRGLNPPHRVKSISMTTFTQQEIEFLQKHGNEVCKQIWLGLFDDRSSAIPDFRDPQKVKEFLQEKYEKKRWYVPPEQAKVVASVHASISGSSASSTSSTPEVKPLKSLLGDSAPTLHLNKGTPSQSPVVGRSQGQQQEKKQFDLLSDLGSDIFAAPAPQSTATANFANFAHFNSHAAQNSANADFANFDAFGQSSGSSNFGGFPTASHSPFQPQTTGGSAASVNANFAHFDNFPKSSSADFGTFNTSQSHQTASAVSKVSTNKAGLQTADKYAALANLDNIFSAGQGGDQGSGFGTTGKAPVGSVVSVPSQSSASSDKYAALAELDSVFSSAATSSNAYTSTSNASSNVFGTVPVVASAQTQPASSSVPAPFGATPSTNPFVAAAGPSVASSTNPFQTNARGATAATFGTASMSMPTGFGTPAPYSLPTSFSGSFQQPAFPAQAAFPQQTAFSQQPNGAGFAAFGQTKPVVTPFGQVAAAGVSSNPFMTGAPTGQFPTGSSSTNPFL
binding (GST-FCHO1 μHD (human) [1]): binds
binding [2]: binds
binding [3]: binds
binding [4]: no binding
binding (GST-FCHO1 μHD (human) [5]): binds weakly
binding [6]: no binding

B2: FCHO1 μHD (purified, not on beads) (domain or fragment, UniProt O14526 609-889)
chain: T1 sequence
binding (EPS15 (595–896) (human)): binds

B3: Fcho2 (rat brain cytosol) (protein, UniProt D3ZYR1 1-809)
chain: MVMAHFVENFWGEKNNGFDVLYHNMKHGQISTKELADFVRERATIEEAYSRSMTKLAKSASNYSQLGTFAPVWDVFKTSTEKLANCHLDLVRKLQELIKEVQKYGEEQVKSHKKTKEEVAGTLEAVQAIQNITQALQKSKENYNAKCVEQERLKKEGATPREIEKAAVKSKKATDTYKLYVEKYALTKADFEQKMTETAQKFQDIEETHLIHIKEIIGSLSNAIKEIHLQIGQVHEEFINNMANTTIESLIQKFAESKGTGKERPGLIEFEECDPASAVEGIKPRKRKTFALPGIIKKEKDAESVECPDADSLNIPDVDEEGFSIKPEANQNDTKENHFYSSSDSDSEDEEPKRYRIEIKPVHPNNVHHTMASLDELKVSIGNITLSPAVSRHSPVQMNRNSSNEELTKSKPSSLPTEKGTNDLLAWDPLFGSSLESSSAPLTSSSSARPTTPLSLGTIVPPPRPASRPKLTSGKLSGINEIPRPFSPPITSNTSPPPTAPLARAESSSSISSSASLSAANTPTVGVSRGPSPVSLGNQDTLPVAIALTESVNAYFKGADPTKCIVKITGDVTISFPSGIIKVFTSNPSPAVLCFRVKNISRLEQILPNSQLVFSDPSQCDSNTKDFWMNMQAVTVYLKKLSEQNPAASYYNVDVLKYQVSSNGIQSTPLNLATYWKCSASTTDLRVDYKYNPEAMVAPSVLSNIQVVVPVDGGVTNMQSLPPAIWNAEQMKAFWKLSGISEKSDSGGSGSLRAKFDLSEGPSKPATLAVQFLSEGNTLSGVDIELVGTGYRLSLVKKRFATGRYLADC
binding [7]: binds

B4: DAB2 (protein, UniProt P98082 1-770)
chain: MSNEVETSATNGQPDQQAAPKAPSKKEKKKGPEKTDEYLLARFKGDGVKYKAKLIGIDDVPDARGDKMSQDSMMKLKGMAAAGRSQGQHKQRIWVNISLSGIKIIDEKTGVIEHEHPVNKISFIARDVTDNRAFGYVCGGEGQHQFFAIKTGQQAEPLVVDLKDLFQVIYNVKKKEEEKKKIEEASKAVENGSEALMILDDQTNKLKSGVDQMDLFGDMSTPPDLNSPTESKDILLVDLNSEIDTNQNSLRENPFLTNGITSCSLPRPTPQASFLPENAFSANLNFFPTPNPDPFRDDPFTQPDQSTPSSFDSLKSPDQKKENSSSSSTPLSNGPLNGDVDYFGQQFDQISNRTGKQEAQAGPWPFSSSQTQPAVRTQNGVSEREQNGFSVKSSPNPFVGSPPKGLSIQNGVKQDLESSVQSSPHDSIAIIPPPQSTKPGRGRRTAKSSANDLLASDIFAPPVSEPSGQASPTGQPTALQPNPLDLFKTSAPAPVGPLVGLGGVTVTLPQAGPWNTASLVFNQSPSMAPGAMMGGQPSGFSQPVIFGTSPAVSGWNQPSPFAASTPPPVPVVWGPSASVAPNAWSTTSPLGNPFQSNIFPAPAVSTQPPSMHSSLLVTPPQPPPRAGPPKDISSDAFTALDPLGDKEIKDVKEMFKDFQLRQPPAVPARKGEQTSSGTLSAFASYFNSKVGIPQENADHDDFDANQLLNKINEPPKPAPRQVSLPVTKSTDNAFENPFFKDSFGSSQASVASSQPVSSEMYRDPFGNPFA
binding (GST-FCHO1 μHD (human) [1]): binds
binding [4]: no binding
binding (GST-FCHO1 μHD (human) [5]): binds weakly

B5: CALM (protein, UniProt Q13492 1-652)
chain: MSGQSLTDRITAAQHSVTGSAVSKTVCKATTHEIMGPKKKHLDYLIQCTNEMNVNIPQLADSLFERTTNSSWVVVFKSLITTHHLMVYGNERFIQYLASRNTLFNLSNFLDKSGLQGYDMSTFIRRYSRYLNEKAVSYRQVAFDFTKVKRGADGVMRTMNTEKLLKTVPIIQNQMDALLDFNVNSNELTNGVINAAFMLLFKDAIRLFAAYNEGIINLLEKYFDMKKNQCKEGLDIYKKFLTRMTRISEFLKVAEQVGIDRGDIPDLSQAPSSLLDALEQHLASLEGKKIKDSTAASRATTLSNAVSSLASTGLSLTKVDEREKQAALEEEQARLKALKEQRLKELAKKPHTSLTTAASPVSTSAGGIMTAPAIDIFSTPSSSNSTSKLPNDLLDLQQPTFHPSVHPMSTASQVASTWGDPFSATVDAVDDAIPSLNPFLTKSSGDVHLSISSDVSTFTTRTPTHEMFVGFTPSPVAQPHPSAGLNVDFESVFGNKSTNVIVDSGGFDELGGLLKPTVASQNQNLPVAKLPPSKLVSDDLDSSLANLVGNLGIGNGTTKNDVNWSQPGEKKLTGGSNWQPKVAPTTAWNAATMAPPVMAYPATTPTGMIGYGIPPQMGSVPVMTQPTLIYSQPVMRPPNPFGPVSGAQIQFM
binding (GST-FCHO1 μHD (human) [1]): binds
binding [2]: binds
binding [3]: binds
binding [4]: no binding
binding (GST-FCHO1 μHD (human) [5]): binds weakly
binding [6]: no binding
